Data taken from the supplement of paper PMC3334620.
Over roughly 33,000 sequences, “E-score (-0.5 to 0.5)” has its median near -0.041; the highest 2% begin near 0.37. The list shows a part of the results.

target: T1, Ecm22 (UniProt Q05958); assay: PBM E-score (8-mer binding enrichment) (E-score (-0.5 to 0.5)); higher = stronger / more preferred TF binding; most listed sequences are background and not binding sites; conditions: protein concentration: 200 nM; construct: GST-full length
T1 sequence: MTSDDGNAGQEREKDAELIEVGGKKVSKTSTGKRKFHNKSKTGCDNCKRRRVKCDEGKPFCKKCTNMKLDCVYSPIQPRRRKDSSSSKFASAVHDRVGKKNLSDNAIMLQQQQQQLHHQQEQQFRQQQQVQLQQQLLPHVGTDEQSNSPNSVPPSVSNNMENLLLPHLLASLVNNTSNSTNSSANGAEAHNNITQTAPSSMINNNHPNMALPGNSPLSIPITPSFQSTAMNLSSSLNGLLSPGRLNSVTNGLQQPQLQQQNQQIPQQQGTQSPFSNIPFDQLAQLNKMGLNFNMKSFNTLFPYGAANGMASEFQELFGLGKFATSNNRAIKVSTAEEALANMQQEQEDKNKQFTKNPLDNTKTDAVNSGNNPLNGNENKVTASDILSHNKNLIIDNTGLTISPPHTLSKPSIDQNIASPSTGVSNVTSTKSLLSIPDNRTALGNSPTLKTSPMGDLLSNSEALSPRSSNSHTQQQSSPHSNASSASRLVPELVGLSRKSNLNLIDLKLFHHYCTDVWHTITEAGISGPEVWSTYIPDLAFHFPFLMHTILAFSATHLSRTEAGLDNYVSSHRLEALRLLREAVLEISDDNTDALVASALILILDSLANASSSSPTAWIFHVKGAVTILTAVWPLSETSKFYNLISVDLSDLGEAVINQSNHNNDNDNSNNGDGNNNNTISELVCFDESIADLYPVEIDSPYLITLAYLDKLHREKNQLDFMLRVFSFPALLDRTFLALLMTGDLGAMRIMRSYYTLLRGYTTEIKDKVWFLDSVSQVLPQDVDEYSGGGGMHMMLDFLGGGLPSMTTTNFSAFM
Summary of the method: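 Bound GST-tagged yeast transcription factors, applied at about 100-200 nM to double-stranded universal all-10-mer Agilent arrays, were detected with fluorescent anti-GST. Scans were normalised with masliner. A modified Wilcoxon-Mann-Whitney statistic, the E-score, was assigned to each ungapped eight-base word pooled with its reverse complement by the Universal PBM Analysis Suite.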

Sequence	PBM E-score
ATAAGGCC	-0.15
ACCAGTCT	-0.0118
CACTAATG	0.0296
ACGTCTGG	-0.11
AAGTATAC	0.255
GTGACGCA	-0.0738
ACTTGAAC	0.118
ACTCCCCC	-0.134
CGTCTCTC	0.126
ACCGGTTG	0.111
ACTCTTCA	0.0478
CATAATGG	-0.242
GTCGAATA	0.173
GATATGAA	-0.0143
AGACGGAG	-0.0869
ATACGCTA	0.272
CCGTTACC	0.122
CACAGCGA	0.111
ATTATGTA	0.139
ATCTTAGA	-0.0556
CCCCAGGG	-0.0745
TAGAGAGA	-0.134
GTGATAAC	-0.179
ACAAATCA	0.00407
AGAGATGG	-0.121

Sequence	PBM E-score
GGATCACA	-0.0526
CACCGCCA	0.00889
GCGTCGCC	-0.00519
CAATTGCC	-0.216
ATGCCCAC	-0.0975
CGGTTCTA	0.00268
CTCCAACC	-0.0849
CTCGAAAA	-0.0476
CAAAAACG	0.141
CGGGGGCA	-0.133
CAACCAAG	-0.124
AAGCCCGG	-0.0641
CGCTCATA	0.182
AGATACCC	-0.0326
GACGAATC	0.106
AGTAACAG	-0.072
GAACGATA	0.416
ACATGAGC	-0.0386
CAGACCCC	-0.411
ACCTCTGG	-0.156
AAACCCTA	-0.258
CGGAGCAC	-0.0149
CGCAAGGC	-0.00088
ATCCTACA	-0.0936
ATCATGCG	0.0546

Sequence	PBM E-score
CGCGGGTC	0.0392
ATTCAAAG	-0.0723
ACGGGGAG	0.145
CGTAACAG	0.26
CCTTAGTA	-0.147
CAACGACA	0.346
AACTCCGC	-0.137
CAGACCTA	-0.112
AAATTCAC	-0.0299
AGTTCGAG	0.0719
TGGTTGAA	-0.234
GGCTAAAC	0.18
GATAAATA	0.103
CACCGAAG	0.0771
ATGATCCC	-0.149
AACGTCAC	-0.0666
GGATTATA	0.0814
GGGCGCAA	-0.104
AACTGTAC	0.265
GTGAATCA	-0.258
AGACGTCT	-0.216
AAATGTGT	-0.0398
CTGATGTA	-0.0454
TCAATGCA	-0.111
AGCGAATA	0.222

Sequence	PBM E-score
ACCTTGAG	-0.235
GAACAGTA	0.141
GGGTAAAC	0.225
CAGAATGG	-0.0638
ACCAGGGT	-0.114
GTTATACA	0.0733
CCGGCCCC	-0.0251
ATTGTACC	0.00485
CTCACGGC	-0.308
CACAGCTG	-0.163
GGTACCGA	0.103
TACGCCGA	0.268
AAATAGGG	-0.133
GGCACTTA	-0.218
CAGTTAGG	-0.201
AGTCTTAG	-0.235
CTCGGTGC	0.11
GAAAAACC	0.00531
AAATTTAC	0.169
CGCACTGC	-0.0361
ACGCAGGG	-0.0322
CGTTTAAG	0.429
AAGCGGGG	-0.137
AGCTCAGC	-0.206
AACCATCG	0.24

Sequence	PBM E-score
TCTCACCA	-0.231
GCGGATCA	-0.096
CATATGCC	0.0035
ATTTGCCA	-0.242
AGATAACT	-0.0702
CCACAGCA	-0.00618
CATCTTGC	-0.0162
ACCGCAAT	0.247
AACACGCG	0.154
CAAAAATC	-0.163
ATGCTAAA	-0.193
AGCGTAAA	0.129
GGTGCGTA	0.0857
AAAATTTG	-0.0142
AGCGCTCC	-0.0811
GGAGCACA	-0.107
ATGGTGTA	-0.112
CTGAGAGA	-0.162
ATCAGTGC	-0.0824
GTAACCGA	0.332
ATGAAGTG	-0.0259
ACGGGTAG	-0.0219
CGACAGGC	-0.0296
ACCTCCAG	-0.114
AAGCTATC	0.0431

Sequence	PBM E-score
AAAAGCGT	-0.0336
CAGGAACG	0.463
ATGTACGA	0.477
GTAATTCA	0.00085
GCCATGAC	-0.05
CTAGTGTC	-0.0311
GTTCTCGA	0.207
AGGACGTG	-0.194
AATTAATT	-0.163
AATCCCCG	-0.0566
ATCCGGGC	0.0039
TAAGTCGA	0.0399
GTTCGATA	0.081
AGGCCCCC	-0.287
ACGTGAGA	-0.0411
GCTTTTTA	0.0693
ACTTATGA	-0.0382
CTGGATAA	-0.118
AGAGAGTG	-0.122
ACCTTGGA	-0.348
AAAGGTCC	-0.182
GAGTTGGC	0.00765
AGTAAGGC	-0.0596
CCGGAAGA	-0.0579
AACCGACG	0.352

Sequence	PBM E-score
AAACCATC	0.00312
CCCCAATA	-0.286
AGTTCTAA	-0.0483
ACCACGCA	-0.16
CATACGCC	0.182
AGTGACTC	-0.146
GCAGCAGC	-0.0529
ACGACGCG	0.407
ACGTACAG	0.186
CACTGTGG	-0.25
AGGAGATG	-0.131
TAGACTAA	-0.258
GCACATCA	-0.0965
CGTTGATA	0.0252
GGGCCAAA	0.00115
ATTCAATC	-0.0165
GTTCCAGA	0.143
CGATGGGA	0.0516
ACGTTACC	0.0268
TGGGTTAA	-0.142
CCAGGGAA	-0.146
GTGTCACA	-0.0999
